Measured values taken from the supplement of paper PMC11417369.
± gives the standard deviation of the averaged measurements. The list shows a part of the results.

The sequences below were run on PfAP2-G AP2 domain (GST-tagged) (assay: gcPBM binding intensity (ln(normalized median fluorescence intensity)); higher = stronger DNA binding).
How it was run: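 After 1 h on an Agilent 4 × 180k array of primer-extended double-stranded 36-bp intergenic genomic probes and negative controls, bound GST-tagged P. falciparum DNA-binding domains were detected with Alexa488 anti-GST antibody and scanned at 488 nm. The domains had been expressed in E. coli, and binding took place in 1× PBS with 1% milk, 0.2 mg/ml BSA, 0.5% salmon testes DNA and 0.03% Triton X-100. Binding intensity is the highest Masliner-normalised natural-log median intensity across replicate spots of either probe orientation.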

| Sequence | gcPBM binding intensity (ln) |
| --- | --- |
| CTTTATTATAAGATTACACACATGTGTTCTAATTTA [CACACA_site7479] | 9.905 ± 0.007 |
| TATAAACAAAACAAAACATGCATAATACTATAAATT [TGCATGCA_site333] | 9.93 ± 0.13 |
| TAATTAACTTTATATGCATGTTAAAAATGTTATAAG [TGCATGCA_site761] | 9.685 ± 0.021 |
| AACAAAATAAAAAGTAATCTTATTTATTAAAATTTT [CACACA_negctrl_site419] | 9.63 ± 0.14 |
| TTTTTCTGTTTTTATAGCCTTCTCATAATACATAAA [TGCATGCA_negctrl_site355] | 10.2 ± 0.49 |
| GCTAATAATAAAAGCATAATGAACAAACACCCAGTA [CACACA_negctrl_site806] | 10.3 ± 0.19 |
| TTATATAACACGGGGAGGACACAAGAAATAAAGAGC [XGTACX_site2148] | 11.5 ± 0.95 |
| TTTATTCAAATATAATGTACTTTCTACAAATTCAAT [XGTACX_site8119] | 11 ± 0.76 |
| CATATATAAATATATACACACATATATATATATATA [CACACA_site1365] | 10.2 ± 0.69 |
| ATTTTTTTTGCTAAGTGTACACAAATGTTTATTAAT [XGTACX_site7440] | 11.7 ± 0.81 |
| TATACGCAGAAACACACACACAAAAAAAAAAAAAAA [CACACA_site427] | 9.87 ± 0.38 |
| TATAATAAATCGAACTGTACATATATATATATATAT [XGTACX_site7097] | 11.1 ± 0.57 |
| ATTCGGATCTATAAGTGTACACAATCTAGCGAAAAG [XGTACX_site3088] | 11.5 ± 0.83 |
| ATATTTTCCCTTTATAGGAGCACAAAAATTAAATGT [CACACA_negctrl_site1114] | 10.5 ± 0.3 |
| CAGATAAGATTTTGTGGTACTATTTATTAAATTAGA [XGTACX_site2644] | 11.1 ± 0.66 |
| AAATTTTTATAATTATCACACATTGAATTGTGGTCT [CACACA_site4343] | 10.23 ± 0.035 |
| AGCGTATAACATATGACACACACACCGACATACACA [CACACA_site8532] | 10.2 ± 0.2 |
| ATATATATATGGAAGTGTACTTATATAGCATACTAG [XGTACX_site5130] | 11.4 ± 0.69 |
| TACGTATCATAATTTTATTTTATATATATTCACAAA [XGTACX_negctrl_site144] | 10.1 ± 0.29 |
| ATTCACAAATATATGGTGCATAATATATATATATAT [GTGCAC_site9674] | 10.1 ± 0.28 |
| AACAATTATTGTAATGCATGCACTGAATATAGAAAG [TGCATGCA_site889] | 10.2 ± 0.18 |
| TTCCAATGATAAAATTGTACTTGAAGAAAATTTTTT [XGTACX_site4607] | 10.9 ± 0.65 |

| Sequence | gcPBM binding intensity (ln) |
| --- | --- |
| AATATGTAAATATGGGTGCTTTAAAATATATTCATT [GTGCAC_site9583] | 10.02 ± 0.099 |
| TAATTATTTTTATTGTTGCACTAGTAAAATTTTAAG [GTGCAC_site9946] | 10.2 ± 0.16 |
| CAATTTATTATATATGTGCACATATAATTTTACAAA | 10.3 ± 0.33 |
| TACATTTTAATATAAGCATGCCTTTAGTTTTTTTCT [TGCATGCA_site829] | 9.82 ± 0.12 |
| AATACAAATATATATGCACACACATATACATACATA [CACACA_site8677] | 10.1 ± 0.16 |
| AAAAAGAAATACAAATAATATATATATATATATATT [TGCATGCA_negctrl_site458] | 9.68 ± 0.2 |
| CATAAAAATTGAAGCACACACACAAAAGAAATACAA [CACACA_site1112] | 10.3 ± 0.2 |
| AATAAACAAATAAATAAACACACAATATATGTATAT [CACACA_site9268] | 9.76 ± 0.2 |
| TTTTTTTTTTCTTTTTTTTATTATATTAACGGAATT [GTGCAC_negctrl_site104] | 9.82 ± 0.17 |
| CACATACAGATATATACACACAAATATAAATACACA [CACACA_site6512] | 10.2 ± 0.2 |
| AATAAATATAAAAATGCACACACACTAATAAAAAAA [CACACA_site8201] | 10.2 ± 0.13 |
| TTACTTATATGCATAGTGCAAATTTGGTAAATATCT | 10.1 ± 0.16 |
| AAAATAAATATATTATCCACGTTGTATATATATATA [XGTACX_negctrl_site136] | 10 ± 0.29 |
| TTTCTTTAACAAGTTAAACACACATACATATATACA [CACACA_site8810] | 10.03 ± 0.099 |
| ATCATTTCTATATAAGCACACACGTGGAATTTTTTT [CACACA_site2786] | 10.2 ± 0.035 |
| TATTTTTTTTGATATTGTACTTTTTTATTATTTTTT [XGTACX_site566] | 11.5 ± 0.98 |
| TAAAAATTTAAGAAAACATGCATCTAACATATATAT [TGCATGCA_site342] | 9.93 ± 0.085 |
| AATATACAAAATAAATAAAATATATATATATATATA [CACACA_negctrl_site216] | 9.89 ± 0.42 |
| TTTTATTTTCGATGATGTACATTAAATTATACAGTA [XGTACX_site6053] | 11.1 ± 0.62 |
| AAATATTACTCCTCAAGTACACATAAAAAAAAAATA [XGTACX_site2085] | 11.4 ± 0.97 |
| TTGTTTTCACCAAATACACACAAGCATACACCCCAT [CACACA_site2717] | 10.8 ± 0.55 |
| ATACATAAATTTATACGTACATATATAGATACATAA [XGTACX_site675] | 11.5 ± 0.91 |

| Sequence | gcPBM binding intensity (ln) |
| --- | --- |
| TTACATGCTAAAATTTGTACATATATGATAAATATT [XGTACX_site2648] | 10.9 ± 0.48 |
| AAGTAAAATAAGTATACACACATAAATATGTAAATA [CACACA_site6467] | 10.1 ± 0.16 |
| TTCTTACACAAAAAAATGAAATCAATCAAAAAAAAA [CACACA_negctrl_site869] | 9.895 ± 0.078 |
| TATATATTTCAATAATGTACATATAATATATATATT [XGTACX_site4124] | 11.1 ± 0.64 |
| AATGTGTAGACACGCACACACAAAAAAATATTTATA [CACACA_site7384] | 10.2 ± 0.27 |
| GTATATATGTATGTATGTACTTATAAAGTTGCATAT [XGTACX_site5616] | 11.3 ± 0.71 |
| TCTACATCTGTATATAAACACACAACAAAAATGCTT [CACACA_site9271] | 9.935 ± 0.035 |
| TATTTATTGTGATACTTATATTATTTCATGATTAAT [CACACA_negctrl_site738] | 10.2 ± 0.29 |
| ACTTTATTATATATTTGTACATATATTTTTAATTTC [XGTACX_site4144] | 11 ± 0.54 |
| ACATTCTGATGGTGATTATTAATTATTACAAAAATT [CACACA_negctrl_site283] | 9.845 ± 0.021 |
| GAAAATATATTTAAGATGCACTTTAAAAATGTACTT | 10.5 ± 0.26 |
| AAGTAATCATCATAAAGTACTAAATTATATTGTCAA [XGTACX_site5841] | 10.7 ± 0.38 |
| AAATTATATATAAAATGTACATATGTAGGTAATTTT [XGTACX_site5047] | 10.9 ± 0.49 |
| TGATTCTTTTCAAAGTGTACAGTAATTTTTATGTAA [XGTACX_site8452] | 11.4 ± 0.76 |
| TATATAATTCAAAAATGTACATGAAATATAAATATT [XGTACX_site7984] | 11 ± 0.59 |
| ATATTATAAATTATAGGTACACACAAAAAAAAAAAG [XGTACX_site2637] | 11.3 ± 0.84 |
| AAATATATTGCATATATACACACGTATATATATTAA [CACACA_site2759] | 9.94 ± 0.014 |
| ATATCAAGCTATGAGAAAAAAAAAAAGAAAAAAAAA [CACACA_negctrl_site1370] | 9.845 ± 0.092 |
| AAGTTTTCTTAAAGATGTACTTTTTAAAAATAAAAT [XGTACX_site3063] | 11.3 ± 1 |
| TATCAGCAATGGAAAACATGCAAAAAATTAATATAT [TGCATGCA_site623] | 9.74 ± 0.16 |
| GCCATTAATTTATACACACACATTATAACTTTTTAT [CACACA_site6492] | 10.2 ± 0.12 |
| TTAAATAAAAAAATAACACACATATAAATCTATATG [CACACA_site7482] | 9.795 ± 0.035 |

| Sequence | gcPBM binding intensity (ln) |
| --- | --- |
| AATACGTTTCAAAAATGTACACATATATCATAAATA [XGTACX_site8962] | 11.3 ± 0.94 |
| ATCAAAAATGTTATATATATATATATATATATATAT [TGCATGCA_negctrl_site71] | 10 ± 0.83 |
| TCTTCAAAGACACAATCACACACATACATAAATATA [CACACA_site8128] | 10 ± 0.17 |
| AGAATTAAAAACAGTTGTACAAAAAGTTGTATAAAT [XGTACX_site411] | 11.1 ± 0.44 |
| AACTTGTATTTATACACACACACACTAGCTTTTTTT [CACACA_site5132] | 10.14 ± 0.092 |
| TTAAAAATCATTTAAGAACACACAAATATTTCCATT [CACACA_site8418] | 9.78 ± 0.23 |
| AGTAATAAATTTTATACATGCATAAAAAAAAAAAAA [TGCATGCA_site661] | 9.72 ± 0.27 |
| TATAGCTTTCATTATACACACATCAAAAATTTAAAT [CACACA_site227] | 10.1 ± 0.16 |
| GACTCATTAAGGATTATTCCTAATGATCAAAAGAAC [CACACA_negctrl_site515] | 9.9 ± 0.11 |
| TATATTTATTTTTAATGTACATATTTAAGAAAACTA [XGTACX_site4920] | 11.3 ± 0.81 |
| TATTAATTATAAGATGCATGTGCAAAAATATGTTCC [TGCATGCA_site51] | 9.87 ± 0.11 |
| TAAAAATTAAAAAGGGTGCAAAAAAAAAAAAAAAAA [GTGCAC_site9733] | 10.1 ± 0.69 |
| TTTCTTTGTATTTATAGTACATATTTTAATAACTGC [XGTACX_site6673] | 11.1 ± 0.76 |
| ATAATATTTTATTATACATGCAAATTATTATATATA [TGCATGCA_site40] | 9.34 ± 0.35 |
| ATATTTTTTTTTTTCACACACATTTATATTGTATTA [CACACA_site5695] | 9.985 ± 0.049 |
| AGAAAAAAGAGGGATACACACAAACATATATTTATA [CACACA_site7122] | 9.96 ± 0.057 |
| TTTCCGGTAATATGGAGATATATGTGGGTTTTTTTT [GTGCAC_negctrl_site374] | 9.94 ± 0.099 |
| ACAAAATTTACAAAATGTACAAAGTATGTGTTTTAT [XGTACX_site6462] | 10.7 ± 0.36 |
| TATATATATTTATGTACACACATATATACCTTTCAT [CACACA_site5479] | 11.4 ± 0.86 |
| CACCCTTTGTTTTAGAGTACATATGTATATACGTAA [XGTACX_site7964] | 11.4 ± 0.83 |
| ATTATATTAATTTATAGTACAATATTTATATATATG [XGTACX_site4668] | 11 ± 0.59 |
| TATATATTACTTTTTTGTACGAATTTTACAACTACG [XGTACX_site3473] | 11 ± 0.54 |
